# Source: the supplement of paper PMC10126150
# Values marked as one replicate rest on one cluster of the flow cell; about a third of the high ones do not repeat.
# Tested on: ATP
# Test: switch fluorescence ratio, 500 uM ATP over buffer (Cy3 cluster intensity, sum of 5 cycles each) (fold (ratio)); higher = stronger signal-on switching upon ATP binding; sequences stand for … in TCGTCGGCAGCGTCAGATGTGTATAAGAGACAGTTTTTTTTTTTTTTTTTTTTTTTTT…TC
# Settings: aptamer strand: ATP DNA aptamer (quencher-CACCTGGGGGAGTATTGCGGAGGAAGG + anchor), 100 nM annealed; ATP concentration: 500 uM; one replicate
# Summary of the method: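 Imaging in selection buffer was followed by imaging after 15 min with 500 uM ATP at 22 °C, for Cy3-labelled switching-strand clusters annealed to 100 nM quencher-labelled ATP aptamer on a modified Illumina MiSeq flow-cell. Five of these buffer/ATP cycles ran, separated by NaOH stripping and re-annealing. The fluorescence ratio per cluster is summed target-cycle over summed buffer-cycle Cy3 intensity, averaged per switch-domain sequence; clusters outside 100-1000 RFU were removed.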
# 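Note: ATP exposure 15 min at 22 °C before imaging.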
row,Sequence,switch fluorescence ratio
1,CGCTTTAACC,1.09
2,CGCTTTCTAT,1
3,CGGAAAACTT,1.09
4,CGGAACTTCG,1.06
5,CGGAAGTATT,0.979
6,CGGAATACAT,1.41
7,CGGAATATCA,1.11
8,CGGAATCGGT,0.966
9,CGGAATCTTT,1.06
10,CGGAATTGGT,0.984
11,CGGACACTGG,1.05
12,CGGACAGTGG,1.02
13,CGGACGCGG,1.16
14,CGGACTCATG,1
15,CGGACTGTGC,1.02
16,CGGAGAGCGG,0.924
17,CGGAGCGACC,3.11
18,CGGAGCGGT,3.14
19,CGGAGGCCAG,1.07
20,CGGAGTTATT,1.06
21,CGGATACGTC,0.963
22,CGGATATCTT,1.02
23,CGGATCAGAT,1
24,CGGATCGGCC,0.991
25,CGGATCGTGC,1.01
26,CGGCAAATCG,1.02

row,Sequence,switch fluorescence ratio
1,CGGCAAGGAT,1.11
2,CGGCAATAGG,3.61
3,CGGCACCAGG,4.41
4,CGGCACCATG,0.993
5,CGGCACGCAC,1.77
6,CGGCAGAGGC,0.994
7,CGGCATAGTT,0.998
8,CGGCATATGC,1.19
9,CGGCATCAAT,1.12
10,CGGCCAAGCT,1.05
11,CGGCGAACGA,1.06
12,CGGCGATAG,1.37
13,CGGCGCGCCC,1.06
14,CGGCGCTAAG,1.03
15,CGGCGCTCAG,0.993
16,CGGCGGAAAT,1.01
17,CGGCGGAGGG,1.02
18,CGGCGTGAC,1.15
19,CGGCGTGCGG,1
20,CGGCGTTACC,1.11
21,CGGCTAATAT,1.32
22,CGGCTAGTCG,1.01
23,CGGCTATATG,1.03
24,CGGCTGAAGA,0.961
25,CGGCTGCTCG,1.02
26,CGGCTGTGCA,0.998

row,Sequence,switch fluorescence ratio
1,CGGCTTAGTG,1.03
2,CGGCTTGGTA,0.958
3,CGGCTTGTGA,1.02
4,CGGCTTTGGG,0.985
5,CGGGAACAGT,0.967
6,CGGGAACGAT,1.04
7,CGGGACACGA,1.06
8,CGGGACCATG,0.99
9,CGGGACTTGC,1.06
10,CGGGAGCTGA,1
11,CGGGAGTTAT,1.04
12,CGGGATCAAG,0.944
13,CGGGATCTCG,1
14,CGGGATGAAA,0.956
15,CGGGATGAGT,1.01
16,CGGGATGGTC,0.988
17,CGGGCATAAC,2.87
18,CGGGCATCCT,1.01
19,CGGGCATGTT,1.01
20,CGGGCATTTT,1.06
21,CGGGCGAAGC,1.01
22,CGGGCTTCG,0.989
23,CGGGGAACGT,0.969
24,CGGGGAACTA,1.07
25,CGGGGACTAG,0.986
26,CGGGGCGCAC,0.953

row,Sequence,switch fluorescence ratio
1,CGGGGCTTCA,1
2,CGGGGGCACT,1.04
3,CGGGGTAAAC,0.997
4,CGGGGTCGAT,1.03
5,CGGGGTCTTG,0.972
6,CGGGGTGACA,1
7,CGGGGTGAGT,0.954
8,CGGGGTTAGT,0.978
9,CGGGGTTCTG,1.02
10,CGGGGTTGTA,0.959
11,CGGGTAATTA,0.999
12,CGGGTCCTGC,1.09
13,CGGGTCGACA,1.03
14,CGGGTGATCT,1
15,CGGGTGATTG,1.01
16,CGGGTGCGCT,0.998
17,CGGGTGTC,1.07
18,CGGGTGTGG,0.983
19,CGGGTTCATT,0.969
20,CGGTAACGA,0.996
21,CGGTACACTC,1.06
22,CGGTACGTCC,1
23,CGGTAGGCT,1.07
24,CGGTAGGGCC,0.973
25,CGGTAGTACG,0.952
26,CGGTATGCGT,1.04

row,Sequence,switch fluorescence ratio
1,CGGTATTCTA,1
2,CGGTCACACC,1
3,CGGTCCAGTG,1.06
4,CGGTCCTCAT,0.992
5,CGGTCGAGCA,1.01
6,CGGTCGAGTG,0.976
7,CGGTCGCCCC,1.03
8,CGGTCGTCGC,0.979
9,CGGTCTAATC,1.05
10,CGGTCTGGAA,1.01
11,CGGTCTTCAC,1.04
12,CGGTGACATC,1
13,CGGTGCAGCG,1.02
14,CGGTGCGTGT,0.988
15,CGGTGCTACA,0.992
16,CGGTGCTATT,0.96
17,CGGTGGGCCA,0.997
18,CGGTGGTAAG,0.982
19,CGGTGGTACG,0.952
20,CGGTGGTCGT,1.02
21,CGGTGGTTCA,0.982
22,CGGTGTCTGG,0.99
23,CGGTGTTTCT,0.959
24,CGGTTAGGTT,0.966
25,CGGTTATCTT,1.03
26,CGGTTCAAGG,0.98

row,Sequence,switch fluorescence ratio
1,CGGTTCTATA,1.02
2,CGGTTCTCTT,1
3,CGGTTGCAGC,0.991
4,CGGTTGTTAG,1.01
5,CGGTTTAACG,0.989
6,CGGTTTAATG,0.939
7,CGGTTTCACC,0.976
8,CGGTTTTCGG,1.01
9,CGGTTTTGAA,1
10,CGTAAAGAAA,0.986
11,CGTAAAGAGT,1.06
12,CGTAAATCAA,0.987
13,CGTAACGTTG,1.01
14,CGTAACTCCA,1.23
15,CGTAAGGCCC,1.47
16,CGTAAGTGGG,1
17,CGTACCTGCT,0.949
18,CGTACCTGGG,1.03
19,CGTACGGGGC,1.11
20,CGTACTAACT,1.1
21,CGTAGAACGT,0.956
22,CGTAGCCGGC,0.966
23,CGTAGCGCAG,1.02
